# Results from PubChem BioAssay AID1347073 (National Center for Advancing Translational Sciences (NCATS), 2019).
# Out of some 45,000 compounds screened, about 200 (0.44%) were called active. Another 7% or so got no clear call; they are omitted. The call rests on the fitted dose curve; in most records, active means well fitted activation curve with a large enough effect; inconclusive means small, poorly fitted or top-dose-only effect; inactive means no such curve, though single readings can be large or run the other way. The list shows a part of the results.
# Assay: qHTS of TDP-43 Inhibitors: NCGC Sytravon Library Screen; further: 0% is about no effect; nearly all actives have a fitted effect of over 55% in size
# Details: yeast TDP-43 toxicity rescue, BacTiter-Glo growth, 24 h; series mostly up to 46.1 µM; growth rescue (activation): at the top concentration
# Method in brief: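 TDP-43-expressing yeast, pregrown in raffinose, seeded at OD600 0.02 in galactose medium with compound for 24 hr at 30 deg C. Growth read by BacTiter-Glo luminescence, so rescue of toxicity appears as activation.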
row,Structure (SMILES),growth rescue (activation)
1,CCOc1ccccc1N1CCN(C(=O)C(Sc2ccccc2)c2ccccc2)CC1 (centres undefined),inactive: 5.09%
2,CC1(C)CC(=O)C2=C(C1)NC(=O)NC2c1ccc([N+](=O)[O-])cc1 (centres undefined),inactive: 9.67%
3,CC(C)COP(=O)(c1ccc(N(C)C)cc1)C(O)c1ccccc1 (centres undefined),inactive: 7.55%
4,CC1CCCN(S(=O)(=O)c2ccc(NC(=O)C3CCN(C(=O)c4ccco4)CC3)cc2)C1 (centres undefined),inactive: 15.6%
5,CC(=O)Nc1ccccc1/C=C/c1ccc2c(C)cc(C)c(O)c2n1,inactive: -13.8%
6,CCN(c1ccccc1)S(=O)(=O)c1csc(C(N)=O)c1,inactive: 6.43%
7,Cc1cccc(C(C#N)c2ccc(Cl)nn2)c1 (centres undefined),inactive: -0.711%
8,Cc1ccc(S(=O)(=O)N2CCN(CCOc3ccccc3)CC2)cc1,inactive: 7.67%
9,O=C(Cc1cccs1)Nc1ccc(S(=O)(=O)N2CCCC2)cc1,inactive: 7.98%
10,C/C(CCc1ccco1)=N/NC(=O)CCC(=O)Nc1ccc(Br)cc1,inactive: 12.2%
11,NC(c1csc(NC(=O)Nc2cccc(C(F)(F)F)c2)n1)C1CCCCC1 (centres undefined),inactive: 7.88%
12,COc1ccc(N2C(=O)C3ON(C4SC(=S)N(C)C4(C)C)C(c4ccc(Cl)cc4)C3C2=O)cc1 (centres undefined),inactive: 20.9%
13,CCCC1(C(=O)OC)NC(c2ccc(OC)c(OC)c2)C2C(=O)N(c3cccc(C(C)=O)c3)C(=O)C21 (centres undefined),inactive: -15.3%
14,N#C/C(=C(/O)COC(=O)c1ccc(Cl)c(S(=O)(=O)N2CCOCC2)c1)c1nc2ccccc2[nH]1,inactive: 6.42%
15,O=C(CN1C(=O)NC2(CCCCC2)C1=O)NCCc1ccc(Cl)cc1Cl,inactive: -9.88%
16,Cc1cccc(NC(=S)N2CCC(O)CC2)c1C,inactive: 11.9%
17,Cc1cc(C(=O)C(=O)O)c(C)n1-c1ccc(Cl)cc1,inactive: -8.4%
18,CCOC(=O)NN1C(=O)c2ccccc2NC1c1ccc(OC)c(OC)c1 (centres undefined),inactive: 10.3%
19,O=c1c2ccccc2c(/C=N/c2ncn[nH]2)c(O)n1Cc1ccccc1,inactive: 9.31%
20,CN(CC(=O)NCCc1ccc(Cl)cc1)S(=O)(=O)c1cccs1,inactive: 20.3%
21,CC(=O)c1c(C)nc(-c2ccccc2)nc1NC(=O)C(C)C,inactive: 6.03%
22,CCOC(=O)c1c(-c2ccc(OC)cc2)csc1/N=C/C1C(=O)CCCC1=O,inactive: 20%
23,Cc1c(O)ccc2c(CN(C)Cc3ccccc3)cc(=O)oc12,inactive: -6.49%
24,Cc1cccc(NCc2ccc(O)c3ncccc23)c1C,inactive: -21.3%
25,CS(=O)(=O)N1CCc2cc(S(=O)(=O)N3CCCCC3)ccc21,inactive: 3%
26,CC(=O)Nc1ccc(N(C(=O)CNC(=O)c2ccco2)C(C(=O)NCC2CCCO2)c2ccccc2)cc1 (centres undefined),inactive: -5.08%
27,CNC(=O)CSc1nnc(SCCC(=O)O)s1,inactive: 2.62%
28,O=C1OC(/C=C/c2ccccc2)=NC/1=C\c1cccnc1,inactive: -16.6%
29,Cc1ccc(OCCNc2cc(N3CCN(CCO)CC3)ccc2[N+](=O)[O-])cc1C,inactive: 12.9%
